# Several values for one entry are separate records, joined by “and”; a condition that tells them apart may be missing. Identical values can stand only once. Out of some 390,000 compounds screened, about 4,000 (1%) were called active. The shares of active, inactive and inconclusive entries below differ from those in the screen. Calls follow the shape of the dose curve; as a rule, active = well fitted inhibition curve with a large enough effect; inconclusive = small, poorly fitted or top-dose-only effect; inactive = no such curve, though single readings can be large or run the other way. A potency beside an inconclusive call is a rough fit, not a confirmed value.
# Target: Thioredoxin reductase 1, cytoplasmic (Rattus norvegicus) (UniProt O89049)
# Sequence of UniProt O89049 (O89049 whole entry, looked up): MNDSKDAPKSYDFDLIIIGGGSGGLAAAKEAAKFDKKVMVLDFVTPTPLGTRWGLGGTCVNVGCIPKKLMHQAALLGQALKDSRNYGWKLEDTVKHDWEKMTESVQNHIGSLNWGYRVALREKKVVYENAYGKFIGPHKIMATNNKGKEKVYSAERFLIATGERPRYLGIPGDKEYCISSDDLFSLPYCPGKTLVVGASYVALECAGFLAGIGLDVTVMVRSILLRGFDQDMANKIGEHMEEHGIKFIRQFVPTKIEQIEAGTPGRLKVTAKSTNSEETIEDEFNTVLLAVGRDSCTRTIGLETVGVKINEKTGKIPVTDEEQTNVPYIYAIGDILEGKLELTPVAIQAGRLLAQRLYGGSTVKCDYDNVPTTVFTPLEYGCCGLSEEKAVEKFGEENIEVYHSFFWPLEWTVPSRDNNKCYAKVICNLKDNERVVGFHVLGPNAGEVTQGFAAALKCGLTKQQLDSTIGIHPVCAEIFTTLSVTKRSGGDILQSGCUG
# Assay: qHTS Assay for Inhibitors of Mammalian Selenoprotein Thioredoxin Reductase 1 (TrxR1): qHTS; also: nearly all actives have a fitted effect of over 65% in size
# Details: recombinant rTrxR1, NADPH fluorescence consumption, selenite substrate; series mostly up to 114 µM
# Outline: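 Rat TrxR1 (90 nM in the dispensed reagent) was pre-reduced with 400 uM NADPH for 5 min at room temperature, then incubated with compound for 15 min. After 400 uM selenite was added, NADPH fluorescence (Ex 340/Em 450 nm) was followed for 8 min.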
# % is scaled to controls: 0 for no effect and ±100 for the full control effect; potency is read from the fitted curve at half-maximal effect; tags tell the direction and shape of the fitted curve.
SMILES,Potency,"activity change, negative = inhibition"
Cc1c(C(=O)NCCc2ccc(Cl)cc2)cccc1-n1cnc2cccnc21,inactive,–
Cc1ccc(S(=O)(=O)CNC(=O)c2ccccc2)cc1,"inconclusive: 56.2 µM [inhibitor, partial curve, poor fit]",–
CCCCn1c(N)c(C(=S)NC(=O)CC(C)C)c(=O)n(C)c1=O,active: 56.2 µM,–
CCCOc1ccc(C(=O)NNC(=S)NC(C)=O)cc1,"inconclusive: 50.1 µM [inhibitor, partial curve]",–
CCCCn1c(NCc2ccccn2)nc2ccccc21,inactive,–
CCOC(=O)c1ccc(CN(Cc2ccc(OC)cc2)S(=O)(=O)c2cccc(C(F)(F)F)c2)cc1,inactive,–
Cc1c(CCC(=O)NCc2ccc(F)cc2)c(=O)oc2cc(O)ccc12,"inconclusive: 20 µM [inhibitor, full curve]",–
O=C(/C=C/c1ccco1)Nc1ccccc1C(=O)O,active: 14.1 µM,–
C=CCOC(=O)C(=O)/C=C/c1csc2ccccc12,"inconclusive: 50.1 µM [inhibitor, partial curve, poor fit]",–
CCc1ccc(CN2CCC(N3CCC(C(=O)N4CCCC4)CC3)CC2)o1,"inconclusive: 89.1 µM [inhibitor, single point]",–
COC(=O)CC1=C(c2ccc([N+](=O)[O-])cc2)CCC1=O,"inconclusive: 89.1 µM [inhibitor, single point]",–
COc1cccc(CN2CCNC(=O)C2CC(=O)NCCCN2CCCC2=O)c1 (stereo not drawn),"inconclusive: 39.8 µM [inhibitor, partial curve, poor fit]",–
Cc1nn(-c2ccccn2)c(N)c1N=O,"inconclusive: 79.4 µM [inhibitor, partial curve, poor fit]",–
O=C(Cc1csc2ccccc12)NCc1ccc(F)cc1,"inconclusive: 89.1 µM [inhibitor, single point]",–
CN(C)c1ccc(-c2nc3ccccc3n2C)cc1,inactive,–
O=C(c1ccccc1Oc1ccccc1)N1CCN(c2ccc(F)cc2)CC1,"inconclusive: 25.1 µM [inhibitor, partial curve, poor fit]",–
CCN(c1ccccc1)S(=O)(=O)c1ccc(NC(=S)NC(=O)c2ccc(Br)o2)cc1,"inconclusive: 44.7 µM [inhibitor, partial curve, poor fit]",–
CCN(CC)S(=O)(=O)c1ccc(/C(O)=C(\C#N)c2nc3ccccc3n2C)cc1,"inconclusive: 100 µM [inhibitor, single point]",–
CCOc1cc(/C=N/NC(=O)c2ccncc2)ccc1OC(=O)c1ccccc1,inactive,–
C=CCOc1ccccc1C1C2=C(CC(C)(C)CC2=O)Nc2c1c(=O)n(C)c(=O)n2C (stereo not drawn),inactive,–
COCCCn1c(SCC(=O)NCc2ccco2)nc2sc3c(c2c1=O)CCC3,"inconclusive: 28.2 µM [inhibitor, partial curve, poor fit]",–
CCOC(=O)CC(=O)c1cc(OC)c(OC)c(OC)c1,"inconclusive: 79.4 µM [inhibitor, partial curve]",–
COc1ccccc1Cn1ccn(CC(=O)Nc2c(C)cc(C)cc2C)c(=O)c1=O,"inconclusive: 79.4 µM [inhibitor, partial curve]",–

SMILES,Potency,"activity change, negative = inhibition"
COc1ccc(NC(=O)c2c(NCc3cccs3)sc3c2CCCCC3)cc1,"inconclusive: 17.8 µM [inhibitor, partial curve, poor fit]",–
O=C(Nc1cccc(Cl)c1)C1CCN(c2nc3ccccc3nc2C(F)(F)F)CC1,inactive,–
COc1ccc(C2=NCN(c3ccc(C)cc3)C(=S)N2)cc1,inactive,–
COc1ccc2c(CNCc3ccco3)c(C(=O)O)n(Cc3ccc(F)cc3Cl)c2c1,inactive,–
NC(=S)NN=C1c2cc(S(=O)(=O)N3CCOCC3)ccc2-c2ccc(S(=O)(=O)N3CCOCC3)cc21,"inconclusive: 70.8 µM [inhibitor, partial curve]",–
Cc1ccc(N2C(=O)/C(=C/c3cccnc3)SC2=S)cc1,inactive,–
CC1=C(C(=O)Nc2ccc(C)cc2)C(c2ccc(C)o2)C2=C(CC(C)(C)CC2=O)N1 (stereo not drawn),"inconclusive: 22.4 µM [inhibitor, single point]",–
Cc1ccc(SC(=O)c2c(C)noc2-c2cc(C)on2)cc1,active: 39.8 µM,–
CN(C(=O)CCCN1C(=O)c2ccccc2C1=O)C1CCCCC1,"inconclusive: 89.1 µM [inhibitor, single point]",–
Cc1ccc(S(=O)(=O)N2CCC(C(=O)Nc3nnc(-c4ccco4)s3)CC2)cc1,"inconclusive: 3.16 µM [inhibitor, partial curve]",–
O=C(COc1ccccc1[N+](=O)[O-])N(Cc1ccco1)C1CCS(=O)(=O)C1 (stereo not drawn),"inconclusive: 70.8 µM [inhibitor, partial curve]",–
CC(=O)Nc1ccc(NC(=S)NC(=O)c2ccc([N+](=O)[O-])cc2)cc1,"inconclusive: 17.8 µM [inhibitor, full curve]",–
COc1ccc(NC(=S)N2CCN(C(=O)C3CCCO3)CC2)cc1 (stereo not drawn),"inconclusive: 79.4 µM [inhibitor, single point]",–
Cc1ccc(Cl)cc1NC(=O)COC(=O)CC(C)(C)CC1=NS(=O)(=O)c2ccccc2N1,inactive,–
CC(O)CSc1nc2c(c(=O)[nH]c(=O)n2C)n1CC(O)COc1ccccc1 (stereo not drawn),inactive,–
Cc1ccc(/C=C2/NC(=O)N(Cc3ccccc3F)C2=O)o1,"inconclusive: 89.1 µM [inhibitor, single point]",–
Cc1cc(C)n(-c2ccc(C(=O)Nc3ccc(C)c(S(=O)(=O)N4CCOCC4)c3)cc2)n1,–,inactive: -43.1% [at 0.0914 µM]
COc1ccc(C(C)=O)cc1COC(=O)[C@H](Cc1ccccc1)NC(=O)c1ccco1,"inconclusive: 22.4 µM [inhibitor, full curve]",–
CC(/C=C/c1ccco1)=N\NC(=O)c1cc(C)[nH]n1,active: 15.8 µM,–
COC(=O)c1cc(=O)n(CCc2ccccc2)c(=Nc2ccc(F)cc2)s1,inactive,–
Cc1c(Nc2ccc3nonc3c2[N+](=O)[O-])c(=O)n(-c2ccccc2)n1C,inactive,–
CCN1C(=O)/C(=C2\SC(=S)N(NC(=O)c3ccccc3O)C2=O)c2ccccc21,"inconclusive: 35.5 µM [inhibitor, partial curve, poor fit]",–
Cc1c(C(=O)NCc2ccc(Cl)cc2)sc2nc3n(c(=O)c12)CCCCC3,"inconclusive: 56.2 µM [inhibitor, partial curve, poor fit]",–

SMILES,Potency,"activity change, negative = inhibition"
COc1ccc(-c2ccc(CCC(=O)O)n2C(C)C)cc1,"inconclusive: 11.2 µM [inhibitor, full curve]",–
O=c1[nH]c(=O)n(-c2ccccc2)c2c1C(C(F)(F)F)(C(F)(F)F)N=C(CCC1CCCCC1)N2,inactive,–
CNc1cc(NS(=O)(=O)c2ccc(N)cc2)nc(NC)n1,"inconclusive: 13.4 µM [inhibitor, partial curve] and inconclusive: 17.8 µM [inhibitor, single point]",–
Cc1cccc(C(=O)N2CCc3cc(CNC(=O)COc4ccc(Cl)cc4)ccc32)c1,inactive,–
N#Cc1c(C#N)c(-c2ccccc2)n(-c2ccccc2)c1N,inactive,–
CCCN(C(=O)CCOc1ccc(C(C)(C)C)cc1)c1c(N)n(Cc2ccccc2)c(=O)[nH]c1=O,"inconclusive: 28.2 µM [inhibitor, single point]",–
Cc1ccc(OCc2nc(C#N)c(N3CCN(Cc4ccccc4)CC3)o2)cc1,"inconclusive: 70.8 µM [inhibitor, single point]",–
COc1cc(S(=O)(=O)N(Cc2cccnc2)Cc2ccco2)ccc1-n1cnnn1,"inconclusive: 14.1 µM [inhibitor, partial curve, poor fit]",–
COc1ccc(NC(=O)CN(C)CC(=O)Nc2sc3c(c2C(N)=O)CCC3)cc1,"inconclusive: 70.8 µM [inhibitor, single point]",–
CCc1ccccc1NC(=S)N(CCOC)C(C)c1ccco1 (stereo not drawn),inactive,–
Cc1cc(C)nc(NS(=O)(=O)c2ccc(NC(=S)NC(=O)c3ccco3)cc2)n1,"inconclusive: 15.8 µM [inhibitor, partial curve]",–
Cn1c(Cn2nnc3ccccc32)nnc1SCC(=O)c1ccc(F)cc1,"inconclusive: 12.6 µM [inhibitor, partial curve, poor fit]",–
Oc1ccc2ccccc2c1C=NCc1ccccc1,inactive,–
COc1ccccc1C1/C(=C(/O)c2ccc(Cl)cc2)C(=O)C(=O)N1CCN1CCOCC1 (stereo not drawn),"inconclusive: 31.6 µM [inhibitor, partial curve, poor fit]",–
O=C(Cn1c(=O)c2cccn2c2ccccc21)NCc1ccccc1F,"inconclusive: 79.4 µM [inhibitor, single point]",–
CCOC(=O)C1=CN(C(=O)OC(C)(C)C)C(CN2C(=O)COCC2=O)C1 (stereo not drawn),inactive,–
CN1CCN(S(=O)(=O)c2cccc(C(=O)Nc3sc4c(c3-c3nc5ccccc5[nH]3)CCCC4)c2)CC1,"inconclusive: 56.2 µM [inhibitor, partial curve]",–
CC(=O)Nc1ccc(NC(=O)CSc2ccc(-c3sc(C)nc3C)nn2)cc1,"inconclusive: 89.1 µM [inhibitor, single point]",–
CCOc1ccc(NC(=O)c2nc(S(=O)(=O)Cc3ccc(F)cc3)ncc2Cl)cc1,active: 4.47 µM,–
CCCCCCC(=O)N(O)C1CC(=O)N(Cc2ccccc2)C1=O (stereo not drawn),inactive,–
Cc1c(N/C(=N/S(=O)(=O)c2cc([N+](=O)[O-])ccc2Cl)c2ccccc2)c(=O)n(-c2ccccc2)n1C,inactive,–
Nc1ccc(Nc2ccccc2)c(Cl)c1,"inconclusive: 2.82 µM [inhibitor, partial curve]",–

# Source: PubChem BioAssay AID588453 (National Center for Advancing Translational Sciences (NCATS), 2011)
